The list shows a part of the results.

These results are taken from the antibiotic and cytotoxicity screens of Wong et al. (2023).

Assay [1] deals with HSkMC (human skeletal muscle cells). Nature of the assay: cytotoxicity call (relative viability < 0.9). Particulars: 10 µM.
Assay [2] deals with HepG2. Nature of the assay: cytotoxicity call (relative viability < 0.9). Particulars: 10 µM.
The subject of assay [3] is S. aureus RN4220. Nature of the assay: growth inhibition call (relative growth <= 0.2). The conditions noted are these: 50 µM.

In the case of `Cc1cccc2[nH]c(CN)nc12`, the cytotoxicity call in assay [1] and in assay [2] was “inactive” each time. For the same compound, the growth inhibition call in assay [3] was “inactive”.

Regarding `C[C@@H]1CCCCO[C@H](CN(C)C(=O)Nc2ccc(C(F)(F)F)cc2)[C@H](C)CN([C@H](C)CO)C(=O)c2cc(NC(=O)c3ccccc3)ccc2O1`, the cytotoxicity call in assay [1] and in assay [2] was “inactive” throughout. Moreover, in assay [3], the growth inhibition call is “inactive”.

In the case of `C[C@@H]1CN([C@H](C)CO)C(=O)c2cc(NC(=O)C3CCCCC3)ccc2O[C@@H](C)CCCCO[C@H]1CN(C)Cc1ccc(C(=O)O)cc1`, the cytotoxicity call in assay [1] and in assay [2] was “inactive” throughout. In addition, the growth inhibition call in assay [3] was “inactive”.

Regarding `O=C(C[C@H]1CC[C@@H]2[C@H](COC[C@H](O)CN2S(=O)(=O)c2cccc(Cl)c2)O1)NC1Cc2ccccc2C1`, the cytotoxicity call in assay [1] and in assay [2] was “inactive” in each case. Also, the growth inhibition call in assay [3] is “inactive”.

As to `COc1ccccc1NC(=O)N(C)C[C@@H]1Oc2ncc(Br)cc2C(=O)N([C@@H](C)CO)C[C@H]1C`, the cytotoxicity call in assay [1] and in assay [2] was “inactive” in each case. The growth inhibition call in assay [3] was “inactive”.

Turning to `C[C@@H]1CN([C@H](C)CO)C(=O)Cc2cc(NC(=O)CCC(F)(F)F)ccc2O[C@@H]1CN(C)C(=O)Nc1ccc(C(F)(F)F)cc1`, the cytotoxicity call in assay [1] and in assay [2] was “inactive” throughout. For the same compound, in assay [3], the growth inhibition call is “inactive”.

Regarding `COC(=O)[C@H](Cc1ccc(N=[N+]=[N-])cc1)N1CC2=C[C@@H](C3CC3)n3c(=O)n(C)c(=O)n3[C@H]2[C@@H]1[C@@H](O)Cc1ccccc1`, the cytotoxicity call in assay [1] and in assay [2] was “inactive” in each case. Also, the growth inhibition call in assay [3] was “inactive”.

On to `CC(=O)O[C@H]1C=C[C@@H](O)C1`, for which the cytotoxicity call in assay [1] and in assay [2] was “inactive” throughout. Also, in assay [3], the growth inhibition call was “inactive”.

`C[C@@H]1CN([C@@H](C)CO)C(=O)c2cc(NC(=O)C3CCCCC3)ccc2O[C@@H](C)CCCCO[C@@H]1CN(C)C(=O)Nc1ccc2c(c1)OCO2`: the cytotoxicity call in assay [1] and in assay [2] was “inactive” in each case. Moreover, the growth inhibition call in assay [3] was “inactive”.

Regarding `C[C@@H]1CN([C@H](C)CO)C(=O)c2cccc(NC(=O)CCCCCC(=O)Nc3ccccc3N)c2O[C@@H]1CN(C)Cc1ccc(Cl)c(Cl)c1`, the cytotoxicity call in assay [1] and in assay [2] was “inactive” each time. Further, the growth inhibition call in assay [3] was “inactive”.

With `CN1CCN(C(=O)C[C@H]2CC[C@@H]3[C@H](COC[C@@H](O)CN3CC3CCCC3)O2)CC1`, the cytotoxicity call in assay [1] and in assay [2] was “inactive” each time. In addition, the growth inhibition call in assay [3] is “inactive”.

Regarding `COCC(=O)Nc1ccc2c(c1)C(=O)N(C)C[C@H](OC)[C@@H](C)CN(Cc1ccccc1F)[C@@H](C)CO2`, the cytotoxicity call in assay [1] and in assay [2] was “inactive” each time. Besides, the growth inhibition call in assay [3] was “inactive”.

Regarding `C[C@@H]1CCCCO[C@@H](CN(C)C)[C@H](C)CN([C@H](C)CO)C(=O)c2cc(NS(=O)(=O)c3cn(C)cn3)ccc2O1`, the cytotoxicity call in assay [1] and in assay [2] was “inactive” in each case. Moreover, in assay [3], the growth inhibition call was “inactive”.

Take `C[C@@H]1CN([C@@H](C)CO)C(=O)c2cccc(NC(=O)c3cnccn3)c2O[C@H]1CN(C)S(=O)(=O)c1cn(C)cn1`: the cytotoxicity call in assay [1] and in assay [2] was “inactive” throughout. The growth inhibition call in assay [3] was “inactive”.

Turning to `C[C@H](CO)N1C[C@H](C)[C@H](CN(C)Cc2ccc3c(c2)OCO3)Oc2c(NC(=O)Nc3ccc(C(F)(F)F)cc3)cccc2C1=O`, the cytotoxicity call in assay [1] and in assay [2] was “inactive” each time. Also, in assay [3], the growth inhibition call is “inactive”.

Take `COc1ccc(C(=O)O)cc1`: the cytotoxicity call in assay [1] and in assay [2] was “inactive” throughout. Moreover, the growth inhibition call in assay [3] was “inactive”.

Take `C[C@@H]1CCCCO[C@@H](CN(C)S(=O)(=O)c2ccccc2)[C@@H](C)CN([C@H](C)CO)C(=O)c2cc(NC(=O)Nc3ccc4c(c3)OCO4)ccc2O1`: the cytotoxicity call in assay [1] and in assay [2] was “inactive” throughout. Also, in assay [3], the growth inhibition call is “inactive”.

Consider `C[C@H](CO)N1C[C@H](C)[C@H](CN(C)C(=O)Nc2cccc3ccccc23)OCCCC[C@H](C)Oc2ccc(NC(=O)CCC(F)(F)F)cc2C1=O`, for which the cytotoxicity call in assay [1] and in assay [2] was “inactive” throughout. Besides, the growth inhibition call in assay [3] is “inactive”.

For `O=C(C[C@@H]1C[C@@H]2c3cc(NS(=O)(=O)c4ccc(F)cc4)ccc3O[C@@H]2[C@H](CO)O1)NCc1ccccc1F`, the cytotoxicity call in assay [1] and in assay [2] was “inactive” throughout. Also, the growth inhibition call in assay [3] is “inactive”.

Take `Cc1noc(C)c1S(=O)(=O)N(C)C[C@H]1OCCCC[C@@H](C)Oc2ccc(NC(=O)CCCCCC(=O)Nc3ccccc3N)cc2C(=O)N([C@@H](C)CO)C[C@@H]1C`: the cytotoxicity call in assay [1] and in assay [2] was “inactive” in each case. Also, the growth inhibition call in assay [3] was “inactive”.

`CO[C@H]1CN(C)C(=O)c2ccc(NS(=O)(=O)CC(F)(F)F)cc2OC[C@@H](C)N(C(=O)c2ccc3c(c2)OCO3)C[C@@H]1C`: the cytotoxicity call in assay [1] and in assay [2] was “inactive” throughout. Besides, the growth inhibition call in assay [3] is “inactive”.

In the case of `C[C@@H]1CN([C@H](C)CO)C(=O)c2cc(NS(=O)(=O)c3ccc(Cl)cc3)ccc2O[C@@H](C)CCCCO[C@H]1CN(C)Cc1ccc(Cl)c(Cl)c1`, the cytotoxicity call in assay [1] and in assay [2] was “active” each time. Also, in assay [3], the growth inhibition call was “inactive”.

Consider `C[C@@H]1CN([C@@H](C)CO)C(=O)c2cccc(NC(=O)Nc3ccc(F)cc3)c2O[C@@H]1CN(C)C(=O)Nc1ccc(C(F)(F)F)cc1`, for which the cytotoxicity call in assay [1] and in assay [2] was “inactive” in each case. Further, the growth inhibition call in assay [3] is “inactive”.

As to `COc1ccc(NC(=O)N(C)C[C@H]2OCCCC[C@H](C)Oc3ccc(NC(=O)NC4CCCCC4)cc3C(=O)N([C@@H](C)CO)C[C@H]2C)cc1`, the cytotoxicity call in assay [1] and in assay [2] was “inactive” in each case. In addition, the growth inhibition call in assay [3] is “inactive”.

As for `CC(C)NC(=O)Nc1ccc2c(c1)C(=O)N([C@@H](C)CO)C[C@@H](C)[C@@H](CN(C)S(=O)(=O)c1cn(C)cn1)O2`, the cytotoxicity call in assay [1] and in assay [2] was “inactive” throughout. For the same compound, the growth inhibition call in assay [3] was “inactive”.

As for `C[C@@H]1CN([C@@H](C)CO)C(=O)c2cc(NS(=O)(=O)c3ccc(Cl)cc3)ccc2O[C@@H](C)CCCCO[C@@H]1CN(C)CC1CCCCC1`, the cytotoxicity call in assay [1] and in assay [2] was “inactive” in each case. For the same compound, in assay [3], the growth inhibition call is “inactive”.
